Source: the antibiotic and cytotoxicity screens of Wong et al. (2023)
Some of the results follow.

Experiments:
HSkMC = human skeletal muscle cells; test: cytotoxicity call (relative viability < 0.9); conditions: 10 µM
HepG2 = test: cytotoxicity call (relative viability < 0.9); conditions: 10 µM
S. aureus RN4220 = test: growth inhibition call (relative growth <= 0.2); conditions: 50 µM

`C[C@H](CO)N1C[C@H](C)[C@@H](CN(C)Cc2ccc(Oc3ccccc3)cc2)Oc2c(NC(=O)Nc3ccc(F)cc3)cccc2C1=O` was tested, and the cytotoxicity call (HSkMC) was “inactive”, the cytotoxicity call (HepG2) was “inactive” and the growth inhibition call (S. aureus RN4220) was “inactive”.

`COc1ccc(NC(=O)Nc2ccc3c(c2)C(=O)N([C@@H](C)CO)C[C@@H](C)[C@H](CN(C)C(=O)CCC(F)(F)F)OCCCC[C@H](C)O3)cc1` was tested, and the cytotoxicity call (HSkMC) was “inactive”, the cytotoxicity call (HepG2) was “inactive” and the growth inhibition call (S. aureus RN4220) was “inactive”.

In the case of `O=c1cc(-c2ccccc2)oc2c(O)c(O)ccc12`, the cytotoxicity call (HSkMC) is reported as “inactive”, the cytotoxicity call (HepG2) is reported as “active” and the growth inhibition call (S. aureus RN4220) is reported as “inactive”.

`C[C@@H]1CCCCO[C@@H](CN(C)S(C)(=O)=O)[C@H](C)CN([C@@H](C)CO)C(=O)c2cc(NS(C)(=O)=O)ccc2O1` was tested, and the cytotoxicity call (HSkMC) was “inactive”, the cytotoxicity call (HepG2) was “inactive” and the growth inhibition call (S. aureus RN4220) was “inactive”.

For `CC(C)NC(=O)N(C)C[C@@H]1Oc2c(NS(=O)(=O)c3cccs3)cccc2C(=O)N([C@H](C)CO)C[C@@H]1C`, the cytotoxicity call (HSkMC) was “inactive”, the cytotoxicity call (HepG2) was “inactive” and the growth inhibition call (S. aureus RN4220) was “inactive”.

With `O=C(C[C@H]1C=C[C@@H](NS(=O)(=O)c2ccc(F)cc2)[C@@H](CO)O1)N1CCC(Cc2ccccc2)CC1` the cytotoxicity call (HSkMC) was “inactive”, the cytotoxicity call (HepG2) was “inactive” and the growth inhibition call (S. aureus RN4220) was “inactive”.

`O=C1OCC=C[C@H]2O[C@@]34C=CCN(Cn5nnc6ccccc65)C(=O)[C@H]3N(CCO)C(=O)[C@@H]4[C@@H]12` was tested, and the cytotoxicity call (HSkMC) was “inactive”, the cytotoxicity call (HepG2) was “inactive” and the growth inhibition call (S. aureus RN4220) was “inactive”.

`C[C@@H]1CN([C@H](C)CO)C(=O)c2cc(NC(=O)Nc3cccc4ccccc34)ccc2O[C@@H](C)CCCCO[C@@H]1CN(C)Cc1ccc2c(c1)OCO2` was tested, and the cytotoxicity call (HSkMC) was “active”, the cytotoxicity call (HepG2) was “active” and the growth inhibition call (S. aureus RN4220) was “inactive”.

In the case of `Cc1ccc(S(=O)(=O)Nc2ccc3c(c2)C(=O)N([C@H](C)CO)C[C@@H](C)[C@@H](CN(C)C(=O)c2ccccc2)OCCCC[C@H](C)O3)cc1`, the cytotoxicity call (HSkMC) is reported as “inactive”, the cytotoxicity call (HepG2) is reported as “inactive” and the growth inhibition call (S. aureus RN4220) is reported as “inactive”.

In the case of `CC[C@@H]1COCCC(=O)N1`, the cytotoxicity call (HSkMC) is reported as “inactive”, the cytotoxicity call (HepG2) is reported as “inactive” and the growth inhibition call (S. aureus RN4220) is reported as “inactive”.

With `C[C@H](CO)N1C[C@H](C)[C@@H](CN(C)Cc2ccc(-c3ccccc3)cc2)Oc2c(NC(=O)c3nc4ccccc4s3)cccc2C1=O` the cytotoxicity call (HSkMC) was “inactive”, the cytotoxicity call (HepG2) was “inactive” and the growth inhibition call (S. aureus RN4220) was “inactive”.

In the case of `C[C@H](CO)N1C[C@H](C)[C@@H](CN(C)S(=O)(=O)c2ccc(Cl)cc2)Oc2c(NC(=O)Nc3ccc(C(F)(F)F)cc3)cccc2C1=O`, the cytotoxicity call (HSkMC) is reported as “inactive”, the cytotoxicity call (HepG2) is reported as “inactive” and the growth inhibition call (S. aureus RN4220) is reported as “inactive”.

For `COCC#Cc1ccc2c(c1)O[C@H](CN(C)C(=O)C1CCCCC1)[C@@H](C)CN([C@H](C)CO)S2(=O)=O`, the cytotoxicity call (HSkMC) was “inactive”, the cytotoxicity call (HepG2) was “inactive” and the growth inhibition call (S. aureus RN4220) was “inactive”.

With `C[N+](C)(C)CCCC[C@@H]1NC(=O)[C@@H]2C[C@H](C(=O)NCCCCCNC(=O)CS)[C@H](c3ccc(O)cc3)N2C1=O` the cytotoxicity call (HSkMC) was “inactive”, the cytotoxicity call (HepG2) was “inactive” and the growth inhibition call (S. aureus RN4220) was “inactive”.

With `C[C@H]1CCCCO[C@H](CN(C)S(=O)(=O)c2ccc(Cl)cc2)[C@@H](C)CN([C@@H](C)CO)C(=O)c2cc(NC(=O)NC3CCCCC3)ccc2O1` the cytotoxicity call (HSkMC) was “inactive”, the cytotoxicity call (HepG2) was “inactive” and the growth inhibition call (S. aureus RN4220) was “inactive”.

For `CCNC(=O)c1cc2c(c(-c3cccc(-c4cc5ccccc5o4)c3)n1)[C@@H](CCO)N(C(=O)NC(C)C)C2`, the cytotoxicity call (HSkMC) was “inactive”, the cytotoxicity call (HepG2) was “inactive” and the growth inhibition call (S. aureus RN4220) was “inactive”.

In the case of `COc1ccc([Si](C)(C)[C@H]2[C@H](CCOC(=O)NCCCCCC(=O)NO)O[C@]3(C(=O)N(Cc4ccccc4)c4ccc(NC(=O)[C@@H](C)OC(=O)NCCCCCC(=O)NO)cc43)[C@@H]2C)cc1`, the cytotoxicity call (HSkMC) is reported as “inactive”, the cytotoxicity call (HepG2) is reported as “inactive” and the growth inhibition call (S. aureus RN4220) is reported as “inactive”.

`C[C@@H]1CN([C@H](C)CO)C(=O)c2cc(NS(=O)(=O)c3cccs3)ccc2O[C@@H]1CN(C)Cc1ccc(Oc2ccccc2)cc1` was tested, and the cytotoxicity call (HSkMC) was “inactive”, the cytotoxicity call (HepG2) was “active” and the growth inhibition call (S. aureus RN4220) was “inactive”.

In the case of `Cc1ccc(S(=O)(=O)Nc2ccc3c(c2)CC(=O)N([C@H](C)CO)C[C@H](C)[C@@H](CN(C)Cc2ccc(C(F)(F)F)cc2)O3)cc1`, the cytotoxicity call (HSkMC) is reported as “inactive”, the cytotoxicity call (HepG2) is reported as “inactive” and the growth inhibition call (S. aureus RN4220) is reported as “inactive”.

With `Cc1nnn2c1COC[C@H](CNCC(C)C)C2` the cytotoxicity call (HSkMC) was “inactive”, the cytotoxicity call (HepG2) was “inactive” and the growth inhibition call (S. aureus RN4220) was “inactive”.

With `C[C@@H]1CN([C@H](C)CO)C(=O)c2cc(NC(=O)C3CCCCC3)ccc2O[C@@H](C)CCCCO[C@H]1CN(C)C(=O)Nc1ccc2c(c1)OCO2` the cytotoxicity call (HSkMC) was “inactive”, the cytotoxicity call (HepG2) was “inactive” and the growth inhibition call (S. aureus RN4220) was “inactive”.

With `C[C@@H]1CN([C@H](C)CO)C(=O)CCCn2cc(nn2)CO[C@H]1CN(C)C(=O)Nc1ccc(C(F)(F)F)cc1` the cytotoxicity call (HSkMC) was “inactive”, the cytotoxicity call (HepG2) was “inactive” and the growth inhibition call (S. aureus RN4220) was “active”.

For `COc1ccc(CN(C)C[C@@H]2OCCCC[C@@H](C)Oc3ccc(NC(=O)C4CCCCC4)cc3C(=O)N([C@@H](C)CO)C[C@H]2C)cc1`, the cytotoxicity call (HSkMC) was “inactive”, the cytotoxicity call (HepG2) was “inactive” and the growth inhibition call (S. aureus RN4220) was “inactive”.

`COc1ccc(S(=O)(=O)Nc2cccc3c2O[C@H](CN(C)S(=O)(=O)c2ccc(OC)cc2)[C@H](C)CN([C@H](C)CO)C3=O)cc1` was tested, and the cytotoxicity call (HSkMC) was “inactive”, the cytotoxicity call (HepG2) was “inactive” and the growth inhibition call (S. aureus RN4220) was “inactive”.
